# From PMC4336329 (PLoS ONE, 2015)
# The campaign covered roughly 310,000 compounds. About 14,000 (4.5%) showed an effect of 50% or more. Effects have a minus sign here. The list shows a part of the results.
# Target: human ether-à-go-go-related gene (hERG) potassium channel (human, UniProt Q12809)
# Experiment: primary screen, population patch clamp on CHO cells stably expressing hERG
# 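Note: peak tail current of the secondary pulse compared with the same well before compound.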
# human ether-à-go-go-related gene (hERG) potassium channel, sequence (Q12809 whole entry, looked up): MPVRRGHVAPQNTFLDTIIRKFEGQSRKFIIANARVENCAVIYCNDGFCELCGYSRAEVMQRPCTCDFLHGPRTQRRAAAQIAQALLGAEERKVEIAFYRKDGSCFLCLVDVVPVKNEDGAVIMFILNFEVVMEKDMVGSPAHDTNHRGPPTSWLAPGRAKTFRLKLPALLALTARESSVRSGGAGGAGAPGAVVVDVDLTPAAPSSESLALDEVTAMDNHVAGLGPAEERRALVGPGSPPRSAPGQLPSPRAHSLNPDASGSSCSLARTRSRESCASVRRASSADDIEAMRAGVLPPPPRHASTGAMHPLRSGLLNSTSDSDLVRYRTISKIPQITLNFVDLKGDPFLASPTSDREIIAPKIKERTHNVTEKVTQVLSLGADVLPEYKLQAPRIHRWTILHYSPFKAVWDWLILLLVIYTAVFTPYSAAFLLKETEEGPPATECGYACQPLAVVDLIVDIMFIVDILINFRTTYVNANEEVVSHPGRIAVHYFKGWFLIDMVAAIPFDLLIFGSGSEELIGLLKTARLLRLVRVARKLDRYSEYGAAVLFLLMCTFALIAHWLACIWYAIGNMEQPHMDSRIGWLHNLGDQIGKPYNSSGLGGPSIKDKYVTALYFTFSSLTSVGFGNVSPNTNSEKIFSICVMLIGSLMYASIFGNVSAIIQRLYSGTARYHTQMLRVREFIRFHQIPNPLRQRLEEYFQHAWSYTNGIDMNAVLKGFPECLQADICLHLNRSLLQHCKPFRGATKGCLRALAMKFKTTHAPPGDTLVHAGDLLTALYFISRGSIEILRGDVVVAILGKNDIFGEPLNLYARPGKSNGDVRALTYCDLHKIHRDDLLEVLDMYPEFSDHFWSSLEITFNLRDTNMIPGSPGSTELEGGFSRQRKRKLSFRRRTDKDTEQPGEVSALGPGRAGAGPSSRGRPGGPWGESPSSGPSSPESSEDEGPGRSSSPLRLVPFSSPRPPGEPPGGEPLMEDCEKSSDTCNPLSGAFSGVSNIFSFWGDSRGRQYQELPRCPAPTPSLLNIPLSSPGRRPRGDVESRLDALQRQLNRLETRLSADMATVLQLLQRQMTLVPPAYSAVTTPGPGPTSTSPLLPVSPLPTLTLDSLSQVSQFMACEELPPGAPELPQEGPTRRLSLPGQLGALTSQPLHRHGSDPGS
row,Structure (SMILES),"hERG current change (%, negative = inhibition) at 10uM [%]"
1,CCOc1ccc(NC(=O)CN(C)Cc2ccc3c(c2)OCO3)cc1S(=O)(=O)N1CCCC1,-44.5
2,CCOC(=O)C(C)Sc1nnc(Cc2cc(=O)[nH]c(=O)[nH]2)n1-c1ccc(Cl)cc1 (stereo not drawn),2.15
3,Cc1ccc(-c2nc(CS(=O)CC(=O)NCc3ccccc3)c(C)o2)cc1 (stereo not drawn),-30.1
4,N#C/C(=C1\CCCN1)c1ccc2ccccc2n1,14.2
5,COc1cccc(C(=O)Nc2nnc(-c3ccc(OC)cc3OC)s2)c1,7.65
6,O=C(NCc1cccc(Cl)c1)c1cccc(OC2CCN(C(=O)C3CC3)CC2)c1,-25.6
7,Cc1ccc2nc(N3C(=O)C(O)=C(C(=O)c4ccc(C)o4)C3c3ccco3)sc2c1 (stereo not drawn),12.8
8,O=C(Nc1ccccc1C(F)(F)F)c1ccccc1Br,10.8
9,Nn1c(-c2ccccc2)nc2cc(Cl)ccc2c1=O,-3.27
10,Cc1ccc(S(=O)(=O)NCCN=C(CN2CCOCC2)NS(=O)(=O)c2ccc(C)cc2)cc1,-17.4
11,COCCCNC(=O)CN1C(=O)/C(=C/c2ccccc2)Sc2ccccc21,-14.3
12,O=C(NCc1ccccc1F)C(c1ccccc1)c1ccccc1,5.79
13,CCn1c(SCC(=O)Nc2nccc(C)n2)nc2ccccc21,-0.289
14,CCCn1cnnc1CNC(=O)C1CCC(=O)N(CCc2cccc(F)c2)C1 (stereo not drawn),14.3
15,Cc1ccc(NC(=O)c2cccnc2)cc1C,10.7
16,O=C(Cc1ncc(C(F)(F)F)cc1Cl)Nc1cccc(Br)c1,-1.28
17,CC1(C)CC(=O)C(C=NCCN2CCN(CCCCS(=O)(=O)O)CC2)=C(O)C1,9.85
18,Cc1ccc(S(=O)(=O)N2CCC(=O)N(CCOC(=O)NCc3ccccc3)CC2)cc1,-39.3
19,c1cnc(N2CCN(c3nc4ccccc4n4cnnc34)CC2)nc1,-27.6
20,O=c1c(C(c2ccc(O)cc2)c2c(O)nc3n(c2=O)CCS3)c(O)nc2n1CCS2,3.65
21,CC(C)=CC(=O)Nc1nnc(-c2cccnc2)s1,24.6
22,O=C1CC(c2ccccc2)CC(O)=C1C=NCCN1CCOCC1 (stereo not drawn),-0.797
23,COc1cccc(CNC(=O)c2nnn(CC(=O)Nc3ccc(C)c(C)c3)c2N)c1,1.8

row,Structure (SMILES),"hERG current change (%, negative = inhibition) at 10uM [%]"
1,COc1ccc(S(=O)(=O)NCC2CCCN(C(=O)c3occc3C)C2)cc1 (stereo not drawn),27.1
2,Cn1c(Br)nc2c1c(=O)n(CC(O)COc1ccccc1)c(=O)n2C (stereo not drawn),-1.54
3,COc1ccc2c(c1)C(NC(C)=O)C(=O)N2C (stereo not drawn),-5.38
4,CCO/C(=C/c1sc2ccc(OC)cc2[n+]1CCCS(=O)(=O)[O-])CC,0.625
5,CC(C)C(=O)O/N=C1\CCS(=O)(=O)c2sccc21,-12
6,Cc1cc(C)n(C(=O)CN2C(=O)c3ccccc3C2=O)n1,8.39
7,Cc1ccc(C(=O)NC(=S)NNC(=O)c2cccc([N+](=O)[O-])c2)cc1,31.3
8,COc1ccc(NC(=O)CN2C(=O)c3cccc4cccc2c34)cc1OC,24.3
9,CCOC(=O)CCC(NC(=O)CCCCCCCC(=O)NC(CCC(=O)OCC)C(=O)OCC)C(=O)OCC (stereo not drawn),-10.1
10,CCOC(=O)C1CCCN(C(=O)CCc2ccccc2)C1 (stereo not drawn),-11.1
11,CCN(C(=O)Cn1c(=O)oc2ccccc21)C1CCS(=O)(=O)C1 (stereo not drawn),-5.12
12,CN1CC(=O)N2Cc3[nH]c4ccccc4c3C[C@H]2C1=O,12.1
13,CN(C)C(=O)Cn1cnc2c(cnn2-c2ccccc2Cl)c1=O,-4.95
14,CSc1cc(-c2ccccc2)n(C)c(=O)c1C#N,17.9
15,COc1ccc(S(=O)(=O)N2CCSCC2)cc1,3.45
16,COc1ccc(CNC(=S)Nc2ccc(S(N)(=O)=O)cc2)cc1,22.1
17,CN(C)c1ccc(/C=N/N(Cc2ccccc2)c2ccccc2)cc1,3.54
18,CCOC(=O)N1CCN(C(=O)CSc2nnc(-c3ccc(C(C)(C)C)cc3)o2)CC1,11.1
19,CS(=O)(=O)N(CC(=O)N1CCc2ccccc2C1)c1ccccc1Br,10.4
20,CC(CCc1ccccc1)NC(=O)COC(=O)C1=COCCO1 (stereo not drawn),8.06
21,COc1cc2ccccc2cc1C(=O)Nc1ccc(N2CCOCC2)cc1,15.1
22,Cc1nc(/N=C(\N)N(C)C)[nH]c(=O)c1C,13.8
23,COc1ccccc1CN(C)C(=O)CN1CCN(CC(=O)Nc2ccccc2Cl)CC1,-28.7

row,Structure (SMILES),"hERG current change (%, negative = inhibition) at 10uM [%]"
1,CCN(Cc1ccncc1)C(=O)c1cc(COc2c(C)cccc2C)on1,-75.3
2,CC(=O)Nc1cccc(NC(=O)C(F)(F)F)c1,21.2
3,Cn1ncc(Cl)c1C(=O)N1CCN(c2ccc(Cl)c(Cl)c2)CC1,-41.5
4,O=C1c2ccccc2C(=O)N1CSc1nnc(Nc2ccccc2)s1,18.9
5,CCN(CC)CCC(c1ccc(N(C)C)cc1)c1c(OC)cc(OC)c2ccc(=O)oc12 (stereo not drawn),-11.7
6,CC1(C)Oc2ccc3ccc(=O)oc3c2-c2cn[nH]c21,11.6
7,CN(C)CCn1c2ccccc2c2nc3ccc([N+](=O)[O-])cc3cc21,5.71
8,COc1ccc(C)cc1S(=O)(=O)N1CCc2ccccc2C1,-10.1
9,O=S(=O)(c1ccc(N2CCOCC2)cc1)N1CCOCC1,-5.96
10,CCOc1ccc(C(=O)Nc2ccc(N3CCCC3)cc2)cc1,3.89
11,CC(C)N(C(=O)NC(=O)Nc1ccc(S(=O)(=O)N2CCCC2)cc1)S(C)(=O)=O,13.9
12,O=S(=O)(c1ccc(F)c(F)c1)N1CCN(Cc2ccc3c(c2)OCO3)CC1,-51.4
13,O=C(Cc1cccs1)NCCc1ccc(Cl)cc1,-37.2
14,Cc1cc(Oc2ccccc2)nc(SCC(N)=O)n1,-1.34
15,COc1cc(/C=C2\CCCc3c2nc2ccccc2c3C(=O)O)cc([N+](=O)[O-])c1O,10.3
16,CC1CCN(C(=O)c2[nH]cnc2C(=O)NCc2ccccc2)CC1,8.61
17,COc1cccc(C(=O)Nc2ccc(NC(=O)C3CC3)nc2)c1,12.8
18,COc1ccccc1CCNC(=O)CSc1nc(=O)[nH]c2c1CCC2,-40.8
19,O=C(CSCc1ccccc1)Nc1ccc(F)c(F)c1,-3.2
20,N#Cc1c(-c2ccccc2)nc(SCC(=O)Nc2ccccc2F)[nH]c1=O,19.7
21,CC(=O)NC(CC(=O)O)C(=O)O (stereo not drawn),20.5
22,COc1cc(C(=S)N2CCOCC2)cc(OC)c1OS(=O)(=O)c1ccc(C)cc1,4.13
23,CCc1nnc(NC(=O)[C@@H](NC(=O)c2cccc(C)c2)C(C)C)s1,5.47

row,Structure (SMILES),"hERG current change (%, negative = inhibition) at 10uM [%]"
1,N#CC1(NC(=O)Cn2cc(C(F)(F)F)ccc2=O)CCCC1,-37.2
2,CC(=O)OC(C(=O)NCc1ccco1)c1ccncc1 (stereo not drawn),12.5
3,CC(C)c1ccc(NC(=O)CCNS(=O)(=O)c2cccc3nonc23)cc1,-8.88
4,CCn1c(N)[n+](CC(=O)Nc2ccc(SC(F)F)cc2)c2ccccc21.[Cl-],-78.4
5,O=C(NCc1ccco1)c1cnn2c1NC(c1ccc(Br)cc1)CC2C(F)(F)F (stereo not drawn),0.369
6,CCC(=O)Nc1ccc2c(c1)ncn2-c1ccc(OC)cc1,-9.24
7,CCC(CC)NCCOC(=O)c1ccc([N+](=O)[O-])cc1,-44
8,Cc1onc(C(=O)Nc2sc3c(c2C#N)CCCC3)c1[N+](=O)[O-],19.2
9,COc1ccc(/C=C/c2ccncc2)cc1OC,-5.59
10,CCOc1cccc(-c2c(C(=O)N/N=C/c3ccc(C)s3)nnn2-c2nonc2N)c1,25.1
11,CCn1nnnc1-c1ccc(OC)c(S(=O)(=O)NCc2ccccc2)c1,-4.08
12,CSCCC1NC(=O)N(CC(=O)Nc2ccc(-c3ccccc3)cc2)C1=O (stereo not drawn),2.38
13,Nc1ccc2nc3c(c(Cl)c2c1)CCCC3,-22.7
14,O=C(CSCCO)Nc1ccc([N+](=O)[O-])cc1,7.88
15,COc1ccc(-c2cc(C(F)(F)F)n3nc(C(=O)NCc4ccco4)c(Cl)c3n2)cc1,11.9
16,Cn1c(=O)c2ncn(CC(=O)O)c2n(C)c1=O,19.3
17,CCCCn1c(N)c(N(CC(C)C)C(=O)c2cccc(S(=O)(=O)N3CC(C)OC(C)C3)c2)c(=O)[nH]c1=O (stereo not drawn),21.6
18,Cc1ccc(CN2CCC(n3nccc3NC(=O)CCOc3ccccc3)CC2)o1,-20.7
19,COc1ccc(CNCc2ccccc2C(F)(F)F)cc1.O=C(O)C(=O)O,-27.9
20,CCC(C)NCCOCCOc1ccc(Cl)cc1Br.O=C(O)C(=O)O (stereo not drawn),-51.1
21,CCOc1c(/C=C(\C#N)C(N)=O)c2ccccc2n1CC,-18.3
